We go through 62 molecules from PubChem BioAssay AID485344 (National Center for Advancing Translational Sciences (NCATS), 2010).

The whole screen tested about 340,000 compounds, of which about 6,900 (2%) were called active. Rule as the data show it: active = inhibition above about 30%; inactive = below that, where a call was filed. The entries are a selection whose mix differs from that of the whole data set. The source gives no active or inactive call for entries shown without one.

In general, inhibition refers to the drop in the measured response relative to a control, in per cent.

The test deals with D(2) dopamine receptor (Homo sapiens) (UniProt P14416). The test is described as follows: HTS Assay for Allosteric Antagonists of the Human D2 Dopamine Receptor: Primary Screen for Antagonists. Also: 0% is about no effect. The following applies: HEK293 TREx D2 cells, calcium flux, dopamine EC80; at 10 µM; stronger effect = higher value. Summed up: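 Tetracycline-induced HEK293 T-REx cells expressing D2 force-coupled to calcium signalling were dye-loaded, exposed to compound for 180 s, then challenged with an EC80 of dopamine; calcium flux was followed kinetically for a further 180 s.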
Chain of UniProt P14416 (P14416 whole entry, looked up): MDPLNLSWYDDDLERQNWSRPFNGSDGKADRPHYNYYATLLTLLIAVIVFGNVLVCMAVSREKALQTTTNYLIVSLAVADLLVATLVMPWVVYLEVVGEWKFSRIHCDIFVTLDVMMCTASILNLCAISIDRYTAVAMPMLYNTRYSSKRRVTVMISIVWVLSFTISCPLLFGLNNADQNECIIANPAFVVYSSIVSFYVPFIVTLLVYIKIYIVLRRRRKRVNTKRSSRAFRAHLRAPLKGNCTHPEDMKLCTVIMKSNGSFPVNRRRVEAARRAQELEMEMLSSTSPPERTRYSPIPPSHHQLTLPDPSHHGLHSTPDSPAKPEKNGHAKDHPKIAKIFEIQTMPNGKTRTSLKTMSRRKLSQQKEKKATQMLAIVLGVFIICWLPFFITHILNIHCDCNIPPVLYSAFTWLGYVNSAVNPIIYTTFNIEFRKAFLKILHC
(A change in cytosolic calcium serves as a functional read-out for many receptors and channels.)
With `COc1ccc2c(c1)NC(c1ccc(F)cc1)=NC(c1ccc(F)cc1)=N2`, the inhibition is 12.2%.

For `COc1cc(OC)cc(C(=O)NC(=S)N2CCN(c3ccc(C(F)(F)F)cc3[N+](=O)[O-])CC2)c1`, the inhibition is active: 30%.

For the molecule `Cc1ccc(/C=C/c2onc(C)c2S(=O)(=O)N2CCC(C(=O)NCc3ccco3)CC2)cc1`, the inhibition was 21.3%.

In the case of `Cc1ccc(CCNC(=O)c2ccc3c(c2)N(Cc2cc(C)ccc2C)C(=O)c2ccccc2S3=O)cc1` (configuration not stated), the inhibition was 20.5%.

Take `CCN(CC)c1ccc(NC(=O)CN2C(=O)c3cccnc3Oc3ccccc32)c(C)c1`: the inhibition is 15.7%.

Turning to `CC(C)(C)c1ccc(-c2nnc(-c3ccccc3NC(=O)c3cccc(C(F)(F)F)c3)o2)cc1`, the inhibition was -5.05%.

With `CCCN1C(=O)C(Cc2nc3ccccc3c(=O)n2CC)c2cc(Br)ccc21` (configuration not stated), the inhibition was -16.2%.

As for `Cc1ccc(C)c(Cn2c(=O)n(Cc3ccccc3)c(=O)c3sc4ccccc4c32)c1`, the inhibition was 13.6%.

Turning to `CC1=C(C(=O)Nc2ccccc2)C(c2ccc(O)cc2)n2nc(-c3ccc(Cl)cc3)nc2N1` (configuration not stated), the inhibition came out at 13.2%.

Consider `Cc1ccc(S(=O)(=O)NCCSc2nnnn2-c2ccccc2)cc1`, for which the inhibition was -10.9%.

As to `COc1ccc2c(c1)NC(c1ccc(Cl)cc1)=NC(c1cccs1)=N2`, the inhibition was -1.43%.

Turning to `CN1CCN(C2=Nc3cc(F)ccc3Cc3ccccc32)CC1`, the inhibition is active: 32.9%.

As to `Cc1ccccc1/C=C\c1nc2ccccc2c(=O)[nH]1`, the inhibition is active: 33.1%.

`Cc1oc(-c2cccc(Br)c2)nc1Cn1c(SCc2cccc(F)c2)nc2cccnc21`: the inhibition is 3.74%.

For the molecule `COc1ccc(NC(=O)CCS(=O)(=O)c2ccc3c(c2)n(C)c(=O)c(=O)n3C)cc1Cl`, the inhibition is 14%.

As for `O=C(CCC1N=C2c3ccccc3N=C(SCc3cccc(Cl)c3)N2C1=O)NCCc1ccccc1` (configuration not stated), the inhibition came out at 0.473%.

Take `COc1ccc(Br)cc1CNC(=O)CSc1n[nH]c(-c2ccccc2)n1`: the inhibition was found to be 1.14%.

As for `CCC(C)[C@H](N)c1nnc(SCc2ccc(Cl)c(Cl)c2)o1` (some centres not stated), the inhibition turned out to be 2.31%.

For `Cc1ccc(CN2C(=O)C3(c4ccccc42)N(c2ccc(C)c(Cl)c2)C(=O)CS3(=O)=O)cc1` (configuration not stated), the inhibition was determined as 8.96%.

On to `COc1ccc(NC(=O)CSc2cn(CCNC(=O)c3ccc(OC)cc3)c3ccccc23)cc1`, for which the inhibition worked out at 5.59%.

Turning to `COc1cccc(/C=C(\C#N)C(=O)Nc2ccc(NC(C)=O)cc2)c1OC`, the inhibition is -27.7%.

Take `CCc1nc2sc3c(N4CCCCC4)ncnc3c2c2c1CCCC2`: the inhibition worked out at 17%.

For `Cc1ccc(-c2nc3scc(CCNS(=O)(=O)c4ccc(Oc5ccccc5)cc4)n3n2)cc1`, the inhibition is -14.8%.

Take `CCOC(=O)c1c(-c2ccccc2)csc1NC(=O)c1nc(SCC)ncc1Cl`: the inhibition turned out to be 2.48%.

As to `CCCCCNC(=O)C1CCC(Cn2c(=O)c3sccc3n(CC)c2=O)CC1` (configuration not stated), the inhibition amounted to 11.6%.

Take `CCOc1cc(/C=C(\C#N)C(=O)Nc2ccc(OC)cc2)ccc1OCc1cc(=O)n2nc(CC)sc2n1`: the inhibition was -15.9%.

In the case of `CC(=O)Nc1ccc(NC(=O)c2ncoc2-c2ccco2)cc1`, the inhibition came to 10.4%.

Consider `Cc1ccc2nc(CSc3nnc(NC(=O)c4ccc(C(C)(C)C)cc4)s3)cc(=O)n2c1`, for which the inhibition is -5.38%.

Consider `CCc1ccc(NC(=O)CN2C(=O)CC(c3ccccc3)Sc3ccccc32)cc1` (configuration not stated), for which the inhibition is -12%.

For `CCCCN(C)CCNC(=O)c1cc(-c2ccc(Cl)s2)nc2ccccc12`, the inhibition was -25.6%.

As to `CC(C)(C)OC(=O)N1CCC(c2c(C(=O)NCCN3CCOCC3)cnn2-c2ccc(F)cc2F)CC1`, the inhibition turned out to be 6.14%.

With `COc1ccc(-c2cccc(NS(=O)(=O)c3ccc(NC(C)=O)cc3)c2)nn1`, the inhibition was -6.65%.

Consider `c1ccc(N2CCN(Cc3ccsc3)CC2)nc1`, for which the inhibition is active: 84.1%.

As to `CCOc1ccccc1Nc1nc2c(S(=O)(=O)c3ccc(C)cc3)nnn2c2ccsc12`, the inhibition turned out to be 0.457%.

For `CCC(C)c1ccccc1OCCOCCN1CCCC1` (configuration not stated), the inhibition is active: 54%.

As for `Cc1cccc(-n2ncc(C(=O)NCc3ccc4c(c3)OCO4)c2C2CCN(C(=O)OC(C)(C)C)CC2)c1`, the inhibition was found to be 7.13%.

For `COc1ccc(CN2CCN(C(=O)c3cccs3)CC2)cc1`, the inhibition is active: 94.5%.

Take `CCc1ccc(NS(=O)(=O)c2ccc3[nH]c4c(c3c2)CCCCCC4)cc1`: the inhibition is 2.18%.

Regarding `O=C(NCc1ccco1)C1CCCN1C(=O)Nc1cccc(Cl)c1` (configuration not stated), the inhibition was active: 56.5%.

Consider `O=C(Nc1ccccc1F)c1ccc(CN2CCN(c3ccccc3)CC2)cc1`, for which the inhibition was active: 80.9%.

With `O=C(CSc1nc(Nc2ccc(F)c(F)c2)c2ccccc2n1)c1ccc(Cl)cc1`, the inhibition is -8.25%.

On to `Cc1cccc(CC(=O)N2CC(=O)Nc3ccc(F)cc3C2c2ccccc2)c1` (configuration not stated), for which the inhibition is -14.1%.

Consider `O=C(CSCc1ccc(F)cc1)NCc1ccc(F)cc1`, for which the inhibition came to 12%.

For `Cc1ccc(CNC(=O)CSc2c(C(C)C)cnc3c2c(=O)n(C)c(=O)n3C)cc1`, the inhibition was -11.7%.

Turning to `O=C(Nc1ccc(O)cc1C(=O)O)c1cccs1`, the inhibition was active: 34.6%.

Turning to `COc1cc(NC(=O)CCCc2nnc3n(C)c(=O)c4sccc4n23)cc(OC)c1OC`, the inhibition was -2.19%.

Consider `CCN(CC(=O)NCc1ccc(Cl)cc1)C(=O)c1c(C)noc1C`, for which the inhibition is active: 30.3%.

Take `CCc1ccccc1NC(=O)Nc1ccc2snnc2c1`: the inhibition was 2.28%.

`COc1ccc(CNCc2ccco2)cc1OCc1ccccc1`: the inhibition was active: 37.4%.

Regarding `CCC(CC)C(=O)N1CCc2cc(OC)c(OC)cc2C1COc1ccc(F)cc1` (configuration not stated), the inhibition was found to be 6.65%.

For the molecule `Cc1ccc(C)c(N2CCN(C(=O)Cn3cnc4nc5c(cc4c3=O)CCCC5)CC2)c1`, the inhibition is -10.4%.

Consider `CCOC(=O)c1cccc(NC(=O)C2=C(C)C(=O)OC23CCCCC3)c1`, for which the inhibition came to 20.4%.

As to `Cc1ccc(C)c(Cn2c(SCC(=O)NCc3ccccc3)nc3ccccc32)c1`, the inhibition was 21.8%.

On to `Cn1c(NCCN)nc2c1c(=O)n(Cc1ccccc1)c(=O)n2C`, for which the inhibition came to 0.664%.

Regarding `CC(C)NC(=O)/C(=N\O)c1ccccc1`, the inhibition is active: 32.1%.

For the molecule `Cc1ccc(C)c(NC(=O)c2oc(=O)c3ccccc3c2-c2ccccc2)c1`, the inhibition turned out to be 1.57%.

In the case of `COc1ccc2[nH]c3c(=O)n(/N=C/[C@H]4C(C)C=C(C)CC4C)c(=O)[nH]c3c2c1` (some centres not stated), the inhibition was active: 35.8%.

Turning to `CCCc1nn2c(=O)cc(COC(=O)c3ccc4c(c3)OCO4)nc2s1`, the inhibition was determined as 17.5%.

For the molecule `Cc1cc2nc(-c3ccc(OCc4ccccc4F)cc3)cc(C(F)(F)F)n2n1`, the inhibition worked out at 8.43%.

For `Cc1ccc(-c2c(C(=O)Nc3ccccc3F)oc(=O)c3ccccc23)cc1`, the inhibition stood at 13.8%.

Turning to `CCCN(CCC)C(=O)C1CCN(c2cc(C)nc3c(-c4ccc(Cl)cc4)c(C)nn23)CC1`, the inhibition was -0.148%.

In the case of `COc1ccc(C(=O)Nc2ccc(-c3nc4ccccc4s3)c(Cl)c2)cc1Cl`, the inhibition stood at 6.49%.
